# Laboratory results published in paper PMC6919601, “Identification of Plasmodium dipeptidyl aminopeptidase allosteric inhibitors by high throughput screening” (PLoS ONE, 2019).
# The whole screen tested about 110,000 compounds, of which about 230 (0.21%) showed an effect of 50% or more. Some of the results follow.
# Target: DPAP1 (Plasmodium falciparum, UniProt Q8IIJ9)
# Test: primary screen, percent inhibition; read by cleavage of a fluorogenic dipeptide substrate; higher = more effect of the substance
# Design: species or system P. falciparum D10 trophozoite lysates; single well
# 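Note: 30 min substrate incubation versus DMSO and 10 µM JCP410 controls.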
# Chain of DPAP1 (Q8IIJ9 whole entry, looked up): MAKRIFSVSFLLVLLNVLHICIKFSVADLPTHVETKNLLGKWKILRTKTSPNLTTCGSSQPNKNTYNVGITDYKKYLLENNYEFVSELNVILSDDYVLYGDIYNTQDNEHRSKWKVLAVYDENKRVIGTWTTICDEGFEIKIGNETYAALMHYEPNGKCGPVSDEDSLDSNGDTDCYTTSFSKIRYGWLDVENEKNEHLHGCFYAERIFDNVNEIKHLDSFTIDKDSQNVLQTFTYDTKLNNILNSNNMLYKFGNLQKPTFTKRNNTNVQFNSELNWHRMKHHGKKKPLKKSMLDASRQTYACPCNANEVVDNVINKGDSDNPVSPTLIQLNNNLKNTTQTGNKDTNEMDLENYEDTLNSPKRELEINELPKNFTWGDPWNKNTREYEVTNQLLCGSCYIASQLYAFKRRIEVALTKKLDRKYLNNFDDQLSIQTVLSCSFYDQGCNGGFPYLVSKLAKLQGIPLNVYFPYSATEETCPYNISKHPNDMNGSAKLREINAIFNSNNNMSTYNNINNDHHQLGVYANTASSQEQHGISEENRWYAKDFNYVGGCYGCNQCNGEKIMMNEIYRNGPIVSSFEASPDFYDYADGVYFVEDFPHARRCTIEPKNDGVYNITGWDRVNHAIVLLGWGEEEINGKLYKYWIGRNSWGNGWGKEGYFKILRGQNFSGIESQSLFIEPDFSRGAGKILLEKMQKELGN
row,SMILES,% Inhibition @ 10 uM
1,NC(=O)c1c(NC(=O)COc2ccccc2)sc2c1CCCCCC2,-0.661%
2,CCN(CC)CCn1c(-c2ccc(Br)cc2)cn2c3ccccc3nc12,5.04%
3,CC1(C)CC2=Nc3ccccc3NC(c3cc(F)ccc3F)C2=C(O)C1 (centres unmarked),-3.16%
4,CC1CCN(S(=O)(=O)c2ccc([N+](=O)[O-])cc2)CC1,0.526%
5,CC(NCc1c(C(=O)O)n(Cc2ccccc2Cl)c2ccccc12)c1ccccc1 (centres unmarked),3.54%
6,COc1cccc(CNC(=O)Cn2nc(C)n3ccnc3c2=O)c1,18.9%
7,COC(=O)c1ccc(Cl)c(-c2ccc(C(=O)N[C@@H](Cc3c(F)cc(OC)cc3F)C(=O)NCC#N)cc2)c1,-6.56%
8,Cc1ccc(C2=NC(=O)/C(=C/c3sccc3C)S2)cc1,0.884%
9,CCOc1ccc(C(=O)Nc2cc(=O)n(C)c(=O)n2C)cc1,-7.56%
10,CC1(C)CC(NC2C3CC4CC(C3)CC2C4)CC(C)(C)N1 (centres unmarked),-5.44%
11,Cc1cc(C)c(C=C2C(=O)c3ccccc3C2=O)c(C)c1C,-2.32%
12,CCOc1cc(CNCc2cc(OC)cc(OC)c2)ccc1OC,3.86%
13,CN1C(=O)/C(=C/c2ccc(-c3ccccc3C(=O)O)o2)S/C1=N/c1ccc(C(=O)O)cc1,22.7%
14,O=C(N(CCN(Cc1ccccc1)C(=O)C(F)(F)F)Cc1ccccc1)C(F)(F)F,-2.8%
15,CCCCCc1ccc(-c2ccc(C(=O)Nc3ccc4ccccc4c3)cc2)cc1,-1.91%
16,CCOC(=O)N1CCN(CCCc2ccccc2)CC1,-1.21%
17,O=C(Nc1ccc([N+](=O)[O-])cc1)C1CC1c1ccccc1 (centres unmarked),-0.415%
18,N#CC1=C(N)Oc2cc3c(cc2C1c1ccc(OCc2ccccc2Cl)cc1)OCO3 (centres unmarked),-4.84%
19,Cn1c(=O)c2sccc2n2c(CCCC(=O)NCCCN3CCCC3=O)nnc12,-3.88%
20,CCOc1cc2c(cc1/C=C1/NC(=O)N(CC(=O)Nc3ccc(Cl)cc3)C1=O)OCO2,-6.16%
21,Cc1ccc(CNC(=O)c2oc3c(c2C)-c2n[nH]cc2CC3)cc1,1.72%
22,Cc1cc(-c2ccc(S(=O)(=O)NCc3cccnc3)s2)on1,-1.59%
23,COc1ccc(S(=O)(=O)NCC2CCN(S(=O)(=O)c3ccc(OC)cc3)CC2)cc1,-5.35%
24,CCOc1ccc(NC(=O)CN(c2ccccc2C)S(=O)(=O)c2ccccc2)cc1,0.635%
25,O=C(O)/C=C/c1cccc(NC(=O)c2ccccc2)c1,1.24%
26,Cc1nc(-c2cc3ccccc3nc2O)no1,-1.92%

row,SMILES,% Inhibition @ 10 uM
1,C=CCOc1ccc(Br)cc1C1C2=C(O)CCCC2=NC2=C1C(=O)CCC2 (centres unmarked),-4.49%
2,Cc1ccc2oc(-c3ccccc3N)nc2c1,2.6%
3,O=C(Cc1ccccc1)NC1CCC(NC(=O)Cc2ccccc2)CC1 (centres unmarked),6.84%
4,O=C(/C=C/c1ccc(F)cc1)n1cnc2ccccc21,14.5%
5,CCCn1c(/C=C/c2ccccc2)nc2ccccc21,-0.0626%
6,CCCCNC(=O)c1cnn2c(C)c(Cc3ccc(C)cc3)c(C)nc12,-2.48%
7,O=C1NC(=O)C(C(c2ccccc2)c2ccccc2)C(=O)N1,0.0345%
8,CC(=O)Nc1ccc(CN2CCN(c3ccc(C)cc3)CC2)cc1,-2.95%
9,Cc1nc(SCC(=O)O)c2oc3ccccc3c2n1,0.273%
10,CCOC(=O)c1c(NC(=O)/C=C/c2cccs2)sc(C(=O)OC)c1C,3.06%
11,COc1ccc(-n2nnc(S(=O)(=O)c3ccc(C)cc3)c2C)cc1Cl,-9.21%
12,COc1ccc2c(c1)C(C(C(C)=O)C(=O)c1ccc(F)cc1)c1ccccc1O2 (centres unmarked),-5.38%
13,O=C(c1cc2ccc3cccnc3c2[nH]1)N1CCC(Cc2ccccc2)CC1,4.11%
14,C=CCOC(=O)n1c(SC)nc2ccccc21,2.79%
15,CCNC(=O)CN(c1cc(C)cc(C)c1)S(=O)(=O)c1ccc(OC)c(OC)c1,-2.14%
16,COc1cc(OC)cc(C(=O)N2CCN(Cc3cccc(OC)c3OC)CC2)c1,-4.01%
17,COc1ccc(-c2c(C)oc3c(CN4CCN(C)CC4)c(O)ccc3c2=O)cc1OC,5.5%
18,Cc1c(CNC2CCCC2)c(C(=O)O)c(C)n1Cc1c(F)cccc1Cl,-3.67%
19,CCN(Cc1ccccc1)C(=O)Cn1cccc1C(=O)c1ccccc1,-5.89%
20,O=C(Nc1ccc(F)cc1)C1CC(=O)N(c2ccc(Cl)cc2)C1 (centres unmarked),0.769%
21,COc1ccc(C)cc1NC(=O)c1ccc(Br)o1,-1.44%
22,Cc1cc(Cl)ccc1OCC(=O)NCCOc1nc(N2CCOCC2)nc(N2CCOCC2)n1,2.05%
23,CC1CCCN(C2=NC(=O)/C(=C\c3cccc(O)c3)S2)C1 (centres unmarked),2.09%
24,Cc1ccc(S(=O)(=O)N(CC(=O)NCc2ccccn2)c2ccc(Cl)cc2)cc1,-3.19%
25,CC(C)Cn1c(CN(C)Cc2ccccc2)nc2c1c(=O)n(C)c(=O)n2C,0.317%
26,O=C(O)c1ccccc1/C=C\c1ccc(Cl)s1,3.05%

row,SMILES,% Inhibition @ 10 uM
1,CCC(C)NC(=O)c1ccccc1NS(=O)(=O)c1ccc2c(c1)OCCO2 (centres unmarked),-4.7%
2,O=C1CCCC/C1=C/Nc1cccc(F)c1,-4.61%
3,COc1ccc(C(=O)Nc2c(C(=O)NC(C)(C)C)oc3ccccc23)cc1,-0.528%
4,CCCCCn1cc(C(=O)NCc2ccccc2)c2ccccc21,-0.834%
5,O=C(NCC1CCCO1)c1ccc(Cn2c(SCc3ccccc3F)nc3ccncc32)cc1 (centres unmarked),6.02%
6,CCOC(=O)c1snc2c(O)ncnc12,-3.64%
7,O=C1NC2(CCN(C(=O)c3ccccc3Cl)CC2)N=C1c1ccccc1,6.99%
8,CC1CCCCN1c1ncnc2sc3c(c12)CCC3 (centres unmarked),-1.65%
9,COc1ccc(C(=O)NC(C(C(C)=O)C(C)=O)(C(F)(F)F)C(F)(F)F)cc1,-1.47%
10,CCOc1ccc(Nc2ncnc3sc(CC)cc23)cc1,-0.711%
11,Cc1ccccc1CN1CCNC(=O)C1CC(=O)O (centres unmarked),-1.11%
12,O=C(NCc1ccccn1)c1ccc(Cl)c(Cl)c1,-2.42%
13,Nc1c(Cl)cc(N2C(=O)c3ccc(C(=O)O)cc3C2=O)cc1Br,1.34%
14,Cc1cc(C)c(NC(=O)Cn2cnc3c2c(=O)n(C)c(=O)n3C)c(C)c1,-5.71%
15,Clc1nc(N2CCOCC2)nc(N(c2ccccc2)c2ccccc2)n1,2.62%
16,O=C(COc1ccccc1)Nc1ccc(S(=O)(=O)Nc2nccs2)cc1,0.658%
17,CC(=O)c1ccc(N2CCN(Cc3ccc4c(c3)OCO4)CC2)cc1,3.95%
18,COc1cc(/C=C2\Sc3ccccc3C2=O)cc(OC)c1O,0.385%
19,O=C1NC(c2ccc(Cl)cc2)c2c(-c3ccco3)n[nH]c21 (centres unmarked),-3.35%
20,O=C(Nc1ccc(Br)cc1)C1CC1(c1ccccc1)c1ccccc1 (centres unmarked),-2.72%
21,O=C(c1ccc2c(c1)sc1nc(-c3ccc(F)cc3)cn12)N1CCC2(CC1)OCCO2,38.1%
22,COc1ccc(S(=O)(=O)N(CC(=O)NC2CCCC2)c2cccc(Cl)c2)cc1,-0.512%
23,Cn1ncc(C(=O)N2CCCCCC2)c1C1CCN(C(=O)OC(C)(C)C)CC1,3.61%
24,CCCN(Cc1ccccc1[N+](=O)[O-])CC1CC1,2.1%
25,COc1ccc(-c2nc(-c3ccccn3)no2)cc1OC,-5.07%
26,Cc1cc(OCC(=O)Nc2ccc(S(=O)(=O)Nc3nccs3)cc2)ccc1Br,6.65%

row,SMILES,% Inhibition @ 10 uM
1,Cc1ccc2oc(=O)c3cc(C(=O)N(CCN(C)C)Cc4ccco4)sc3c2c1,3.6%
2,CCC(CC)C(=O)Nc1cccc(NC(=O)c2cccs2)c1,3.29%
3,Cc1ccc2occ(C3Nc4ccccc4N=C4CC(C)(C)CC(O)=C43)c(=O)c2c1 (centres unmarked),-1.08%
4,CC(=O)Nc1ccc(C2C(C#N)=C(N)Oc3cc(N)ccc32)cc1 (centres unmarked),0.317%
5,COc1ccccc1N1C(=O)C2C(C1=O)C1CC2[C@H](S)[C@H]1S (some centres unmarked),-0.48%
6,CCOC(=O)c1c(C)c(C(=O)NC(C)c2ccccc2)c(C)n1C (centres unmarked),-1.66%
7,COc1cc2ccccc2cc1C(=O)NCCc1ccccc1,-9.2%
8,O=C(O)CCC(=O)Nc1ccc(-c2cn3ccsc3n2)cc1,-4.12%
9,CC(C)(C)NS(=O)(=O)c1ccc2[nH]c3c(c2c1)CCCCC3,0.098%
10,CC(C)c1ccc(C2C(C#N)=C(N)OC3=C2C(=O)CCC3)cc1 (centres unmarked),-4.12%
11,CNC(=O)OCc1nc(COC(=O)NC)nc(COC(=O)NC)n1,-1.18%
12,CCN(CC)C(=O)c1cc([N+](=O)[O-])cc([N+](=O)[O-])c1N,1.7%
13,CCOC(=O)c1nc(-c2ccc(C(F)(F)F)cc2)no1,-0.92%
14,Cc1cc(C)c(C)c(/C=C(/C#N)C(N)=O)c1C,-3.38%
15,Cn1c(C(=O)N2CCCC(C(=O)NCc3ccc(F)cc3)C2)cc2sccc21 (centres unmarked),-11.6%
16,O=C(Nc1cc(-c2ccccc2)sc1C(=O)O)c1cccnc1,-2.17%
17,CN(C)c1ncc(C(=O)O)cn1,3.88%
18,CCn1cc(C(=O)OCc2ccc(F)cc2Cl)c(=O)c2ccc(C)nc21,1.09%
19,Cn1c(=O)c2c(nc(NCc3ccco3)n2Cc2cccc3ccccc23)n(C)c1=O,-4.39%
20,COc1ccc(OCCCn2ccnc2)cc1,-3.94%
21,COc1ccc(-c2noc(CCC(=O)NCc3ccc(F)cc3Cl)n2)cc1,60.3%
22,O=C(NC1(C(F)(F)F)N=C2SCCN2C1=O)C1CCCCC1 (centres unmarked),1.01%
23,COCCNC(=O)C(c1ccccc1)N1Cc2ccccc2C1=O (centres unmarked),3.98%
